This is one part of the list.
Tested on: PF3D7_0420300 AP2 domain 1 (GST-tagged)
Test: gcPBM binding intensity (ln(normalized median fluorescence intensity)); higher = stronger DNA binding
Procedure, shortened: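 Binding intensity is the highest Masliner-normalised natural-log median intensity over replicate spots in either probe orientation. To obtain it, GST-tagged P. falciparum DNA-binding domains made in E. coli were incubated for 1 h on an Agilent 4 × 180k array of primer-extended double-stranded 36-bp intergenic genomic probes plus negative controls. Detection used Alexa488 anti-GST antibody with scanning at 488 nm.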

Sequence	gcPBM binding intensity (ln)
AAAGATATAAATTACTGTACTAATGAAATTGGTAAA [XGTACX_site3582]	9.15
ATATTAAAATTTTAATGTACATGCGTATGTAGGAAT [XGTACX_site1673]	9.44
TATATTATATTTTTATGTACTTATTTATTTTGTTTC [XGTACX_site6145]	9.46
AACATATATTTTTAATGTACAAGGTTGTAAAGAACT [XGTACX_site1405]	9.25
ATGTATATATTCAATTGTACATGTTATATTTACACA [XGTACX_site1125]	9.25
ATTGTATTAAAATGCACACATATCAAGAGGAATTTT [CACACA_site283]	9.22
AAAGAATAATTAAATACACACATATTGCAGTAAAAA [CACACA_site7201]	9.69
TGTAAAATATAAAAAGTGCATTTCTTTTAATATGAT	9.1
TTCTGTCAATATGCTTGTACGAAATATTTCGTAATT [XGTACX_site3182]	9.4
ATAAATAAATACTAGGCACACACACCGATATATATA [CACACA_site8649]	10.1
TATTAATCCTTTTGCTTGGAAACATTCAAAAGGAAG [CACACA_negctrl_site1129]	8.69
AAAATAAACCCAGACACACTCATTAAAAAATATCAT [CACACA_site5903]	9.6
ATATATATAAAATATGGTACAGAAAAAGTCTTGTTT [XGTACX_site8868]	9.53
AATCCTTAAAATTAACGTACGAAATGAATTTATTAA [XGTACX_site956]	8.96
TGGAGGTCATTACACAGTACCCAGGAAATCTACGGA [XGTACX_site2004]	9.08
AAACCGTGGGAGCACACACACACACCCACCCATATA [CACACA_site332]	10.2
ATAATAACAAAATATTAACACACATAACATATTATA [CACACA_site8906]	9.71
ACAAAACAAAACAAAAGTACACAAAATAAATAAGAT [XGTACX_site6497]	9.92
AAAGTTTTTATAAAAAAAAAAATAAATACCATATAT [XGTACX_negctrl_site113]	9.31
GTGTTTTTATGTGAATGTACATATTTACTATCACAC [XGTACX_site2388]	9.56
AAAAGTTTAAGTTTTCGAAAATTTACCAAAAAAAAA [CACACA_negctrl_site1644]	9.06
AATCCTTACGAACACACACACACGAATAAATAAAAA [CACACA_site6363]	10.1
TAGAATTAAGTTATTGCACACAGGAAAAGTTTCATA [CACACA_site1634]	9.32

Sequence	gcPBM binding intensity (ln)
TCTTCGAAACTATCACTCTCACAATTCATTTATTTT [TGCATGCA_negctrl_site156]	9.3
ATAAATAAGAAAAATTGTACAATATTTTTTAGGATA [XGTACX_site3163]	9.21
ATATACATTAAATGAACACACATAAATAAATTACAT [CACACA_site2852]	9.62
TTTTAATTTTGTTGTTGTACAAATAACATGTGAGGG [XGTACX_site4401]	9.06
TATTTTATCATTTTTTTTATGTCTTTATTTCACTTG [CACACA_negctrl_site1398]	9.43
CTGTGTTTTGGTTGTACACACGCTACATTATATATT [CACACA_site5487]	9.79
AACACATAAAAAAGGTGTACCATAAAATATACATAC [XGTACX_site4478]	9.58
CTCATTTTTGTACAGGTGCACTTATCGTTACACTAT	9.52
ATATATATATATATATCATTTATTTAAAAATTTTTT [TGCATGCA_negctrl_site228]	8.96
ATATACACATTAATAACACACAATATGATAACAAAT [CACACA_site7670]	10
GTCTAAAAATAAAAAGTGCATTTGTTTAATATTTTG	9.25
TGATTGTATTAAAATGCACACATATCAAGAGGAATT [CACACA_site7985]	9.41
TTAATTTTTTTTTTTTGTACTCATATGTAATTCATC [XGTACX_site3071]	9.16
ATTAAAACAAATATGTGTACATAAAAATATATATAT [XGTACX_site8394]	9.54
TATTATTATTATTATTTTAAAAGAAATAAAAATATG [XGTACX_negctrl_site119]	8.74
TTAATAAATATGTTTACACACGAAAATACATTTTTT [CACACA_site8245]	9.27
TTAAAAGTTATGGATACACACATATAAATATAGATT [CACACA_site7175]	9.46
TCGATTAAAACACAAAAATATAAATACATTGATAAA [TGCATGCA_negctrl_site523]	9.14
TAATTTTCATAATTTTGTACTTAACGTTTTACCTTG [XGTACX_site8048]	9.27
ATTTTAATTTTTTAAGTATTATATGAATATTTATTA [TGCATGCA_negctrl_site142]	8.94
TTACTTTAACCTTCTCGTACTTATTTACTTTATTCT [XGTACX_site7801]	9.7
TTTCAAAGGAAATGGTGTACACAATTTTTCCTTTTT [XGTACX_site2340]	8.95
TTTTATTATTCTTCTCTCTTATATATATATATATAT [CACACA_negctrl_site646]	9.39

Sequence	gcPBM binding intensity (ln)
ATAACATAGGCAATCACACATATCATTAAGGTGTCA [CACACA_site5233]	9.58
ACTGTGGTATAAAGTTGTACATGTTTTTATATATTT [XGTACX_site5257]	9.59
TACTTTTATATGAATACACACAGGAATATATATATG [CACACA_site3568]	9.48
ATTTACATAAACGTCTGTACTAATATACAATTTTCT [XGTACX_site1700]	9.3
CATAAAATTGTATTTTGTACACATTTTGTATACATT [XGTACX_site5705]	9.23
TATATATAGAAACACACACACATATATATATATATT [CACACA_site4115]	9.91
TATTTTATTTCAAATCTTAATAATTGTAATTCTTCA [XGTACX_negctrl_site442]	8.91
TGTGTAATACATAATACACACATGTATATGTCGCAT [CACACA_site4757]	9.43
TTTTAATTAGAAATCATACACACATATATATATATA [CACACA_site174]	9.26
ATTTTTAAAATAAATACATGCATATATTTATATGTT [TGCATGCA_site394]	9.21
AAAAAAAAAGAGGCGTGTACATATATAATTTAAATT [XGTACX_site6827]	9.63
TGTTCTAATATTTGTTGTACATTTACATTTCTCTCT [XGTACX_site2585]	9.46
TTATTAAAGTATAACTGTACATGCGAGTAAAAGAAT [XGTACX_site7388]	9.63
ATAATAGAAACAAACAGTACACATACCTAAAAGGAA [XGTACX_site8647]	9.7
AAATAAAACAGACACACACACACATACACAAAAAAA [CACACA_site7753]	10.2
TATAAATATGTATATGCATGTGGAATATATAATTAA [TGCATGCA_site226]	9.36
ATATGAGTATAAAAATGTACGGAGCAACTAAATATA [XGTACX_site620]	9.65
TGTCACCTATTTTTTTGTACGTATGTCCATTTTTTT [XGTACX_site4368]	9.71
ATTACAACCACATTGACATGCAAATGTAGAGGGGGA [TGCATGCA_site694]	9.67
TTAACTTCTTTAAAATGTACATATATTAAATAATAA [XGTACX_site3391]	8.8
AAAAAATATAGATGCACACACAAAAAAACAAATTAA [CACACA_site6718]	9.88
TTTATGTAATATACATGTACAGAATATAAAATATAT [XGTACX_site6906]	9.15
TATTCTTACATCACCTCACACATTTAATATTCCTTA [CACACA_site4693]	9.52

Sequence	gcPBM binding intensity (ln)
ATATATATATATCAGAGTACATTCTTTAAAATATAT [XGTACX_site5915]	9.14
AGATTTTGAAATTATAAAAAAATTTCACTTCATTTA [CACACA_negctrl_site888]	8.81
GTATTATTATTTTATGCATGTACATTGAATTATATT [TGCATGCA_site34]	9.53
TATTATATATTTAATAGTACATATAAAATAATAAGG [XGTACX_site4823]	9.12
TGGTTTATTTATTAAGTGCATAAATGCAATATATAT	9.15
TACTATAACCCACATACACACAAAAAAAAAAAAAAA [CACACA_site4454]	9.46
TTTATTTTTAACAGTGCACACATAACTTAATTATAT [CACACA_site8681]	9.39
TATACAGATGGACACACACACATAAATAAATATATA [CACACA_site4863]	10
ATTTATATGAAAATATGTACTTATATAAATTTATTT [XGTACX_site53]	9.17
AAAAAATAGAATATGGGTACTAAAAAGATACAAACA [XGTACX_site4464]	9.67
AAATTCGTAATAATGTGTACATAACTATACATAATT [XGTACX_site1717]	9.29
GATTATTTCTAAAAAGTGCATATTTAAAAATCTCCT	8.99
ATTGTTTTGTAATATGAAAAAATTGTGTAATGTGTC [CACACA_negctrl_site1510]	9.39
CTAAAAAGAGAAGTGTGTCCTCAAATTAATATAATT [XGTACX_site1057]	9.25
TTTTTTTTTTTTGAAGTGCATGTTACGATGAACAAA [GTGCAC_site9451]	8.85
TCTTATATAACGAAAGTAAAATAATATGCTAAGCAT [CACACA_negctrl_site668]	8.98
TATATAAAAATATACACACACAAATGTATTTATATA [CACACA_site4284]	9.59
AATGAATATTAAAGGAGTACACATAATAAGTAAGAA [XGTACX_site7354]	9.72
GAAAAAAAAAAAAATACACACAAATTGGTATAGAAT [CACACA_site380]	9.68
AAAATAGAGTTGAATGCACACATACAAATTTTTAGG [CACACA_site9188]	9.32
